{"source": "the supplement of paper PMC12217912", "parents": {"B1": {"name": "TEV protease; numbered along this chain (parent)", "chain": "MGESLFKGPRDYNPISSSICHLTNESDGHTTSLYGIGFGPFIITNKHLFRRNNGTLVVQSLHGVFKVKDTTTLQQHLVDGRDMIIIRMPKDFPPFPQKLKFREPQREERICLVTTNFQTKSMSSMVSDTSCTFPSGDGIFWKHWIQTKDGQCGSPLVSTRDGFIVGIHSASNFTNTNNYFTSVPKNFMELLTNQEAQQWVSGWRLNADSVLWGGHKVFMVKPEEPFQPVKEATQL"}}, "note": "This is one part of the list. The full chains were built here from the parent and the listed change. Values near 0.05 are background.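 Note: Bxb1 expression induced with 0.2% (w/v) L-rhamnose at OD600 near 0.5, cultures sampled hourly, flipped fraction per protease–substrate barcode pair counted by paired-end Illumina sequencing.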", "data": [{"variants_of": "B1", "assay": "raw area under fraction-flipped curve 0-4 h after induction (AUC4h, not background-subtracted), DNA-recorder readout of cleavage of the substrate (dimensionless); higher = more cleavage of the substrate by the protease variant", "conditions": "temperature: 34 °C; time window: 0-4 h after rhamnose induction", "values": [{"variant": "MGESLFKGPRDYNPISSSICHLTNESDGHTTSLYGIGFGPFIITNKHLFRRNNGTLVVQSLHGVFKVKDTTTLQQHLVDGRDMIIIRMPKDFPPFPQKLKFREPQREERICLVTTNFQTKSMSSMVSDTSCTFPSGDGIFWKHWIQTKDGQCGNPLVSTRDGFIVGIHSASNFTNTNNYFTSVPKNFMELLTNQEAQQWVSGWRLNADSVLWGGHKVFMVKPEEPFQPVKEATQL", "note": "[S154N]", "area with substrate ENLYPQS": 0.0638}, {"variant": "MGESLFKGPRDYNPISSSICHLTNESDGHTTSLYGIGFGPFIITNKHLFRRNNGTLVVQSLHGVFKVKDTTTLQQHLVDGRDMIIIRMPKDFPPFPQKLKFREPQREERICLVTTNFQTKSMSSMVSDTSCTFPSGDGIFWKHWIQSKDGQCGSPLVSTRDGFIVGIHSASNFTNTNNYFTSVPKNFMELLTNQEAQQWVSGWRLNADSVLWGGHKVFMVKPEEPFQPVKEATQL", "note": "[T147S]", "area with substrate ENLYQQS": 0.0618, "area with substrate ENLYRQS": 0.0535}, {"variant": "MGESLFKGPRDYNPISSSICHLTNESDGHTTSLYGIGFGPFIITNKHLFRRNNGTLVVQSLHGVFKVKDTTTLQQHLVDGRDMIIIRMPKDFPPFPQKLKFREPQREERICLVTTNFQTKSMSSMVSDTSCTFPSGDGIFWKHWIQTKDGQCGSPLVSTRDGFIVGIHSFSNFTNTNNYFTSVPKNFMELLTNQEAQQWVSGWRLNADSVLWGGHKVFMVKPEEPFQPVKEATQL", "note": "[A170F]", "area with substrate ENLYQQS": 0.0486, "area with substrate ENLYWQS": 0.0705}, {"variant": "MGESLFKGPRDYNPISSSICHLTNESDGHTTSLYGIGFGPFIITNKHLFRRNNGTLVVQSLHGVFKVKDTTTLQQHLVDGRDMIIIRMPKDFPPFPQKLKFREPQREERICLVTTNFQTKSMSSMVSDTSCTFPSGDGIFWKHWIQTKDGQCGSPLVSTRDGFIVGIHSASLFTNTNNYFTSVPKNFMELLTNQEAQQWVSGWRLNADSVLWGGHKVFMVKPEEPFQPVKEATQL", "note": "[N172L]", "area with substrate ENLYQQS": 0.0641}, {"variant": "MGESLFKGPRDYNPISSSICHLTNESDGHTTSLYGIGFGPFIITNKHLFRRNNGTLVVQSLHGVFKVKDTTTLQQHLVDGRDMIIIRMPKDFPPFPQKLKFREPQREERICLVTTNFQTKSMSSMVSDTSCTFPSGDGIFWKHWIQTKDGQCGSPLVSTRDGFIVGIHSASNFTNTQNYFTSVPKNFMELLTNQEAQQWVSGWRLNADSVLWGGHKVFMVKPEEPFQPVKEATQL", "note": "[N177Q]", "area with substrate ENLYSQS": 0.086, "area with substrate ENLYTQS": 0.0965}, {"variant": "MGESLFKGPRDYNPISSSICHLTNESDGHTTSLYGIGFGPFIITNKHLFRRNNGTLVVQSLHGVFKVKDTTTLQQHLVDGRDMIIIRMPKDFPPFPQKLKFREPQREERICLVTTNFQTKSMSSMVSDTSCTFPSGDGIFWKHWIQTKDGQCGSPLVSTRDGFIVGIHSASNFTNTNRYFTSVPKNFMELLTNQEAQQWVSGWRLNADSVLWGGHKVFMVKPEEPFQPVKEATQL", "note": "[N178R]", "area with substrate ENLYSQS": 0.0674}, {"variant": "MGESLFKGPRDYNPISSSICHLTNESDGHTTSLYGIGFGPFIITNKHLFRRNNGTLVVQSLHGVFKVKDTTTLQQHLVDGRDMIIIRMPKDFPPFPTKLKFREPQREERICLVTTNFQTKSMSSMVSDTSCTFPSGDGIFWKHWIQTKDGQCGSPLVSTRDGFIVGIHSASNFTNTNNYFTSVPKNFMELLTNQEAQQWVSGWRLNADSVLWGGHKVFMVKPEEPFQPVKEATQL", "note": "[Q97T]", "area with substrate ENLYTQS": 0.084, "area with substrate ENLYWQS": 0.0756}, {"variant": "MGESLFKGPRDYNPISSSICHLTNESDGHTTSLYGIGFGPFIITNKHLFRRNNGTLVVQSLHGVFKVKDTTTLQQHLVDGRDMIIIRMPKDFPPFPQKLKFREPQREERICLVTTNFQTKSMSSMVSDTSCTFPSGDGIFWKHWIQTKDGQCGSPLVSTRDGFVVGIHSASNFTNTNNYFTSVPKNFMELLTNQEAQQWVSGWRLNADSVLWGGHKVFMVKPEEPFQPVKEATQL", "note": "[I164V]", "area with substrate ENLYTQS": 0.0676}, {"variant": "MGESLFKGPRDYNPISSSICHLTNESDGHTTSLYIIGFGPFIITNKHLFRRNNGTLVVQSLHGVFKVKDTTTLQQHLVDGRDMIIIRMPKDFPPFPQKLKFREPQREERICLVTTNFQTKSMSSMVSDTSCTFPSGDGIFWKHWIQTKDGQCGSPLVSTRDGFIVGIHSASNFTNTNNYFTSVPKNFMELLTNQEAQQWVSGWRLNADSVLWGGHKVFMVKPEEPFQPVKEATQL", "note": "[G35I]", "area with substrate ENLYVQS": 0.0533}]}]}
